In publication PMC9456277:
No constants are given. Whether binding was seen depends on the method and setting. In cells and extracts the contact can be indirect. Each block holds one binder with its values, some of them ahead of it.

Amino acid sequences for entries named in this document (tags omitted). Residues count along the entry.
UniProt P13595, residues 20-1115: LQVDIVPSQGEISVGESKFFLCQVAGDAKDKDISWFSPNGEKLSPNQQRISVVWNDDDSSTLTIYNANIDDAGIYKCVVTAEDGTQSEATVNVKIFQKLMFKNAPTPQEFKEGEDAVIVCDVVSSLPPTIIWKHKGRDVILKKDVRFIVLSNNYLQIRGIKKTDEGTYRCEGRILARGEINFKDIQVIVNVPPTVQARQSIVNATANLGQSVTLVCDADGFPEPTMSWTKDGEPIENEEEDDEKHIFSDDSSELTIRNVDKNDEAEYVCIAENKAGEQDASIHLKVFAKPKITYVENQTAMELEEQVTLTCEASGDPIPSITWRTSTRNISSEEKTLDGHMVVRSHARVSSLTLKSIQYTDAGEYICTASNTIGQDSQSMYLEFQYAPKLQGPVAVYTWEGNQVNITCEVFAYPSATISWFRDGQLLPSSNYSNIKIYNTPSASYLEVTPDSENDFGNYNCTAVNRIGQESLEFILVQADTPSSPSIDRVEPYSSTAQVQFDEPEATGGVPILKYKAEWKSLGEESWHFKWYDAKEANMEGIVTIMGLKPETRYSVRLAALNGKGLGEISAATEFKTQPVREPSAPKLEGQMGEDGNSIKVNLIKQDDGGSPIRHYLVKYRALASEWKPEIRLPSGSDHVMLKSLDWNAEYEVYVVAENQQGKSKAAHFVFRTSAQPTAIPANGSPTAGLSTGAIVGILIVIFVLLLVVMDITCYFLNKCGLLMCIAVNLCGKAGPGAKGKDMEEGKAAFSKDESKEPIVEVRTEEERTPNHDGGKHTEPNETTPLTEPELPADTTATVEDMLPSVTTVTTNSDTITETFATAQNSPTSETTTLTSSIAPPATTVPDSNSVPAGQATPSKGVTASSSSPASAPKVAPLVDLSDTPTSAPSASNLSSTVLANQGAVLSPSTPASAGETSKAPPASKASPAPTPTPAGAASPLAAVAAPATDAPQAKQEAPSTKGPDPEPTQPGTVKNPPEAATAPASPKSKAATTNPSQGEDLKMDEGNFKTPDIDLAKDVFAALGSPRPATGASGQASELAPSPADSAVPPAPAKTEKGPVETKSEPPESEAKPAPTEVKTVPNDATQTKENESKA
UniProt Q61056: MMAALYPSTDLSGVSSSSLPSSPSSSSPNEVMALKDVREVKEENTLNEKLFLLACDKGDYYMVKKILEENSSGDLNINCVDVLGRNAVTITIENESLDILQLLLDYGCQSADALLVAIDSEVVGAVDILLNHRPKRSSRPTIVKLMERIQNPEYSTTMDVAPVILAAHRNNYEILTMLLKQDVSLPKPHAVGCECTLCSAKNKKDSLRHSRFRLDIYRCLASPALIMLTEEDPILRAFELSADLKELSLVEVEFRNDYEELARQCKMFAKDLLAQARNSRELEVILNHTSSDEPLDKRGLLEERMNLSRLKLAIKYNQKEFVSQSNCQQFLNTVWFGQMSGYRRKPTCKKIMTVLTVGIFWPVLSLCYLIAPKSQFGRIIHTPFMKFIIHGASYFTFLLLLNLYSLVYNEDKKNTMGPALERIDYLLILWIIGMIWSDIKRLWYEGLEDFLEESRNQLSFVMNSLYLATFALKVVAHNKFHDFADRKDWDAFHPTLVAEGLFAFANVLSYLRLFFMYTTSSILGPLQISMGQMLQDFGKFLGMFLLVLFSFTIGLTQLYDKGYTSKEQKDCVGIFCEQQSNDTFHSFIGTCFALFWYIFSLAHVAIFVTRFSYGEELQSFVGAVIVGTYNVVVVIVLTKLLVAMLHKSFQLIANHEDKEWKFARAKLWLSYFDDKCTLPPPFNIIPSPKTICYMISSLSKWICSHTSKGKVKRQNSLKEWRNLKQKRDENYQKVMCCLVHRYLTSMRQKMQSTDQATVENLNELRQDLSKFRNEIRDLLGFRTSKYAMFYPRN

Columns and labels:
[1] = target: neural cell adhesion molecule (NCAM) (mouse (endogenous in mouse brain and neurons)) (UniProt P13595); assay: co-IP; brain detergent extracts of wild-type and NCAM-deficient mice; IP with NCAM antibody H28 (extracellular domain); Western blot with TRPC1 E-6, TRPC4 N77/15, TRPC5 N67/15 and TRPC3/6/7 H-100
[2] = target: transient receptor potential canonical channel 1 (TRPC1) (mouse (endogenous in mouse brain and neurons)) (UniProt Q61056); assay: co-IP; detergent extract (1% Nonidet P-40) of young adult mouse brain; IP with TRPC1 antibody H-105, TRPC4/5 antibody H-80, TRPC3/6/7 antibody H-100 or nonimmune Ig on Protein G or A Dynabeads, 2 h at 4 °C; Western blot with NCAM antibodies 5B8, D3 or TRPC3/6/7 antibody H-100
[3] = target: transient receptor potential canonical channel 1 (TRPC1) (mouse (endogenous in mouse brain and neurons)), Q61056; assay: as above; settings: remark: other sources report otherwise

binding [1]: no binding
binding [2]: no binding
B1: transient receptor potential canonical channel 6 (TRPC6) (protein, UniProt Q61143 1-930)
chain: MSQSPRFVTRRGGSLKAAPGAGTRRNESQDYLLMDELGDDGYPQLPLPPYGYYPSFRGNENRLTHRRQTILREKGRRLANRGPAYMFNDHSTSLSIEEERFLDAAEYGNIPVVRKMLEECHSLNVNCVDYMGQNALQLAVANEHLEITELLLKKENLSRVGDALLLAISKGYVRIVEAILNHPAFAEGKRLATSPSQSELQQDDFYAYDEDGTRFSHDVTPIILAAHCQEYEIVHTLLRKGARIERPHDYFCKCTECSQKQKHDSFSHSRSRINAYKGLASPAYLSLSSEDPVMTALELSNELAVLANIEKEFKNDYRKLSMQCKDFVVGLLDLCRNTEEVEAILNGDAETRQPGDFGRPNLSRLKLAIKYEVKKFVAHPNCQQQLLSIWYENLSGLRQQTMAVKFLVVLAVAIGLPFLALIYWCAPCSKMGKILRGPFMKFVAHAASFTIFLGLLVMNAADRFEGTKLLPNETSTDNARQLFRMKTSCFSWMEMLIISWVIGMIWAECKEIWTQGPKEYLFELWNMLDFGMLAIFAASFIARFMAFWHASKAQSIIDANDTLKDLTKVTLGDNVKYYNLARIKWDPTDPQIISEGLYAIAVVLSFSRIAYILPANESFGPLQISLGRTVKDIFKFMVIFIMVFVAFMIGMFNLYSYYIGAKQNEAFTTVEESFKTLFWAIFGLSEVKSVVINYNHKFIENIGYVLYGVYNVTMVIVLLNMLIAMINSSFQEIEDDADVEWKFARAKLWFSYFEEGRTLPVPFNLVPSPKSLLYLLLKFKKWMCELIQGQKQGFQEDAEMNKRNEEKKFGISGSHEDLSKFSLDKNQLAHNKQSSTRSSEDYHLNSFSNPPRQYQKIMKRLIKRYVLQAQIDKESDEVNEGELKEIKQDISSLRYELLEEKSQNTEDLAELIRKLGERLSLEPKLEESRR

binding [1]: no binding
binding [2]: no binding
B2: transient receptor potential canonical channel 7 (TRPC7) (protein, UniProt Q9WVC5 1-862)
chain: MLGSNTFKNMQRRHTTLREKGRRQAIRGPAYMFNEKGTSLTPEEERFLDSAEYGNIPVVRKMLEESKTLNFNCVDYMGQNALQLAVGNEHLEVTELLLKKENLARVGDALLLAISKGYVRIVEAILSHPAFAQGQRLTLSPLEQELRDDDFYAYDEDGTRFSHDITPIILAAHCQEYEIVHILLLKGARIERPHDYFCKCNECTEKQRKDSFSHSRSRMNAYKGLASAAYLSLSSEDPVLTALELSNELARLANIETEFKNDYRKLSMQCKDFVVGVLDLCRDTEEVEAILNGDVNLQVWSDHHRPSLSRIKLAIKYEVKKFVAHPNCQQQLLTMWYENLSGLRQQSIAVKFLAVFGVSIGLPFLAIAYWIAPCSKLGQTLRSPFMKFVAHAVSFTIFLGLLVVNASDRFEGVKTLPNETFTDYPKQIFRVKTTQFSWTEMLIMKWVLGMIWSECKEIWEEGPREYVLHLWNLLDFGMLSIFVASFTARFMAFLKASEAQLYVDQYVQDVTLHNVSLPPEVAYFTYARDKWWPSDPQIISEGLYAIAVVLSFSRIAYILPANESFGPLQISLGRTVKDIFKFMVIFIMVFVAFMIGMFNLYSYYRGAKYNPAFTTVEESFKTLFWSIFGLSEVISVVLKYDHKFIENIGYVLYGVYNVTMVVVLLNMLIAMINNSYQEIEEDADVEWKFARAKLWLSYFDEGRTLPAPFNLVPSPKSFYYLIMRIKMCLIELCQSKAKRCENDLEMGMLNSKFRKTRYQAGMRNSENLTANSTFSKPTRYQKIMKRLIKRYVLKAQVDRENDEVNEGELKEIKQDISSLRYELLEEKSQATGELADLIQQLSEKFGKNLNKDHLRVNQGKDI

binding [3]: no binding
B3: transient receptor potential canonical channel 3 (TRPC3), Q9QZC1 1-910 (protein)
chain: MSTKVKKCREPARVTLPAPEEEEDGEAEGGESQRRRRGWRGVNGGLEPPCPRAPPSPGPDASSEGSPSRWRTAGMRDKGRRQAVRGPAFMFGARGPSLTAEEERFLDAAEYGNIPVVRKMLEESRTLNVNCVDYMGQNALQLAVGNEHLEVTELLLKKENLARIGDALLLAISKGYVRIVEAILGHPGFAASRRLTLSPCEQELRDDDFYAYDEDGTRFSPDITPIILAAHCHKYEVVHLLLLKGARIERPHDYFCRCSDCAEKQRLDAFSHSRSRINAYKGLASPAYLSLSSEDPVLTALELSNELAKLANIEKEFKNDYRKLSMQCKDFVVGVLDLCRDSEEVEAILNGDLESAEPLERHGHKASLSRVKLAIKYEVKKFVAHPNCQQQLLTIWYENLSGLREQTIAIKCLVVLVVALGLPFLAIGYWIAPCSRLGKILRSPFMKFVAHAASFIIFLGLLVFNASDRFEGITTLPNITVIDYPKQIFRVKTTQFTWTEMLIMVWVLGMMWSECKELWLEGPREYIVQLWNVLDFGMLSIFIAAFTARFLAFLQATKAQQYVDSHVQESDLSEVTLPPEVQYFTYARDKWLPSDPQIISEGLYAIAVVLSFSRIAYILPANESFGPLQISLGRTVKDIFKFMVLFIMVFLAFMIGMFILYSYYLGAKVNPAFTTVEESFKTLFWSIFGLSEVTSVVLKYDHKFIENIGYVLYGIYNVTMVVVLLNMLIAMINSSYQEIEDDSDVEWKFARSKLWLSYFDDGKTLPPPFSLVPSPKSFVYFIMRITNFSKCRRRRLQKDLELGMGNSKSRLNLFTQSNSRVFESHSFNSILNQPTRYQQIMKRLIKRYVLKAQVDKENDEVNEGELKEIKQDISSLRYELLEDKSQATEELAILIHKLSEKLNPSVLRCE

binding [1]: no binding
B4: transient receptor potential canonical channel 3 (TRPC3) (protein, UniProt Q9QZC1 1-910)
chain: B3 chain
